Whole data set: some 33,000 sequences, median “E-score (-0.5 to 0.5)” near -0.012, cut for the highest 2% near 0.29. This is one part of the list.
What follows are sequences tested against T1, Ybr033w (UniProt P38073) (assay: PBM E-score (8-mer binding enrichment) (E-score (-0.5 to 0.5)); higher = stronger / more preferred TF binding; most listed sequences are background and not binding sites). Details: protein concentration: 200 nM; construct: GST-full length.
T1 sequence: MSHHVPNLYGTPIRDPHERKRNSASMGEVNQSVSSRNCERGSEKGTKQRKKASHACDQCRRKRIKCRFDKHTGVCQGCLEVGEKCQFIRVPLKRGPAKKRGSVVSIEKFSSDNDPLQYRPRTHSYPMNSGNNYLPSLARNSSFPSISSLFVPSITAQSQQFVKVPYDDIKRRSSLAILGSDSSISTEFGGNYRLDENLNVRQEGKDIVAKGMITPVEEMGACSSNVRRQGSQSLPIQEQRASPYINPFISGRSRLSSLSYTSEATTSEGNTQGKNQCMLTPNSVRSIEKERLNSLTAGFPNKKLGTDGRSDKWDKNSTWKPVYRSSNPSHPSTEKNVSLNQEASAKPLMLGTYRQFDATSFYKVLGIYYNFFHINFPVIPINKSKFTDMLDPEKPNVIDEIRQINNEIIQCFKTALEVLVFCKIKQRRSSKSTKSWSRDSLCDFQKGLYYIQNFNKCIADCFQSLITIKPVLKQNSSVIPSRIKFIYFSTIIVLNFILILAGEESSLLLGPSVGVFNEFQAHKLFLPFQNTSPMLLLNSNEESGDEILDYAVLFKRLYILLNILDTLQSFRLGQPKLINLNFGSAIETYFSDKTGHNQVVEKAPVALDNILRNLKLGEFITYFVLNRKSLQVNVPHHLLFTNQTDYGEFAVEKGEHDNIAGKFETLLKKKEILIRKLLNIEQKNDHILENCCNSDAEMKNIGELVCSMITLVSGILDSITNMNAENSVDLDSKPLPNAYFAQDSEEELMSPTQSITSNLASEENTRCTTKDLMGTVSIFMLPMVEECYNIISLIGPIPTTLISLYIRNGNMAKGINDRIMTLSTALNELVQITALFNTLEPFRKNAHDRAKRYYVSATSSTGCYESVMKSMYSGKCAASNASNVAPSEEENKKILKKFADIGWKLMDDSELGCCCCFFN
How it was run: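 Each ungapped eight-base word and its reverse complement, pooled, received an E-score from the Universal PBM Analysis Suite. Underlying scans, normalised with masliner, recorded fluorescent anti-GST bound to GST-tagged yeast transcription factors. These were applied at about 100-200 nM to universal all-10-mer Agilent arrays double-stranded by primer extension.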

Sequence	PBM E-score
TATTTGCA	0.225
CCCAGTTC	0.018
GGAGCCGA	-0.336
AAGTATTG	0.219
GAACGGAC	-0.149
AAGCATTG	0.108
GTGGAGCA	-0.254
AAGGGTAC	-0.119
AACAAGTG	0.127
AGGAGATC	0.0653
AGCCTTAA	-0.00502
AATCTTCA	0.318
AGGAAGCC	-0.117
CGACCCAC	-0.0852
GAAGCTTC	0.104
GGTTAGCA	0.0526
GGCATCCA	-0.185
CCGAGGTA	-0.0303
GAATTCAA	0.177
AAAAATGC	0.196
AGATGCAC	-0.14
CAAAGTCA	-0.0549
CTTGCCGC	-0.201
CTATTCGA	-0.043
TCAGTGAA	0.0307

Sequence	PBM E-score
ACCTGGCG	-0.328
ATCCACCC	-0.274
CCATGATC	-0.107
CAACTGCC	0.0104
GGCCTAAC	-0.013
GCTAGGGA	-0.218
CTTTTTCA	0.0943
AGATATAA	0.225
ATCGTTCA	0.0199
CCAAGACC	-0.1
CTAAAGAC	0.00499
CCCTAAGA	-0.234
AACCTATT	0.0936
AGGGAACG	-0.258
ACTGATTG	0.0585
ACGTGAAG	-0.0656
ATGAGCAC	-0.0794
CAGCGAGA	-0.0995
CCACGTAC	-0.0232
AGCTATAA	0.078
CGGGGAAG	-0.195
GATCCAGC	-0.125
AAAGAAAC	0.117
ATTCTGGC	-0.217
AAAAATCC	0.287

Sequence	PBM E-score
GCGAACAA	0.183
ACTGGCCC	0.0468
AATGTGGG	0.175
CCAGGGGG	-0.383
CCGGGGTA	-0.173
AACAGGGC	-0.144
AAGAGACA	0.103
ACCGCCCA	-0.269
GCGTCTCA	-0.129
CCACGGCC	-0.229
AACCAAAG	0.152
CTCAAATC	0.0295
AGCATTCC	-0.043
CAAACCTA	0.0917
CAACATAG	-0.0242
CTTTTTTA	0.124
TTACCGAA	0.0572
ACCTACTA	0.126
CTATCACA	0.15
GCTTACCA	0.087
ACTGTGAG	-0.00662
ATAGGATC	0.0418
ATTATGCG	0.151
TGATATCA	-0.011
GAGTAAAC	0.094

Sequence	PBM E-score
AGCTCGGG	-0.0821
GTTAGAAC	0.0406
ATTACGTA	0.122
GCGATGTA	0.104
AATCAGTA	0.153
AATGCTTC	0.105
AGTCTGTG	-0.206
GGACGTGA	-0.265
ACCTCTGC	-0.199
AGTACCAG	-0.0329
CTTTGGCC	0.0559
CGTTTGGA	0.0158
CACTACAC	-0.0863
TAACCGGA	0.0539
AAGCTGCG	-0.101
CGGGCATA	-0.157
TCAACCAA	0.114
AATGAGAC	-0.0515
GTGGTTCA	0.17
TGATGTAA	0.142
ACCTTGAT	0.144
TACGCGCA	0.0815
AATACTCA	0.229
ACGACAGT	-0.00999
GTCCCAGA	-0.263

Sequence	PBM E-score
AGTCTGGC	-0.258
CGAACATC	-0.0571
AGTGGAGA	0.0873
CTCACGAC	-0.187
CCCAAAAG	-0.0497
AAGGCTGG	-0.0837
ATAGGGGG	-0.184
ATAGTGGC	-0.112
AGGTGTGC	-0.05
ACATTATG	0.139
AGCCTTAG	-0.134
GATTGAAA	0.074
CCTCAGAG	-0.308
CCCGTGCA	-0.251
CGACGCTA	-0.12
CTATATGC	0.183
CCGATAAG	-0.146
GATCTAGC	-0.208
AGCCGAGG	-0.0193
AATTTGAA	0.233
CTAGTATC	0.176
ACATGTTA	0.289
CATAAGCA	0.0517
TAACACCA	0.0431
AACATACT	0.187

Sequence	PBM E-score
GCTTATAA	0.147
ACCGCAGA	-0.144
TCTCGAGA	0.0301
AGATCAAT	0.169
AGGTCTAT	0.00576
AGTCAGAT	-0.00156
AACCAGCT	-0.122
CTGGAACC	-0.209
ACCCCAGG	-0.274
CTTAACGC	-0.085
CGTTGACC	0.00329
CAGCTGGC	-0.165
CCAATGGA	-0.109
GAAGCATC	-0.128
ACGACGAC	-0.16
CAGTGCGC	-0.233
ATGTGTAA	-0.0574
GCTCGTCC	0.0606
GAACATCA	0.0118
AGGCTATG	-0.279
CCAGGCGC	-0.157
GAGTTAAC	0.0643
CGTGATTA	0.0332
TTCCCAAA	0.277
CAACGCCA	-0.0806

Sequence	PBM E-score
CATGCTGA	0.0291
GCCCTATA	-0.0135
CTTGACAC	-0.117
ATCCGGCC	0.179
ACGTGCGC	-0.0698
TAAAAAGA	0.222
ATCATACG	0.116
AAGGAACG	-0.173
ATACTGAA	0.179
AACACCTG	-0.0978
AGCCGCCG	-0.0472
GTTCTGTA	0.168
CATACTGG	-0.156
ATACGAGC	0.162
AGAACATA	0.192
ACTTCAGG	0.0321
CAGGCTCG	-0.175
CTAACTAC	0.0343
GTCCCAAA	-0.00725
TCACGTGA	-0.117
GCGACTCA	-0.174
GAAAATTA	0.331

Reference: the supplement of paper PMC3334620
